According to PubChem BioAssay (NCATS):
This list was built around the results that the source calls inconclusive (neither active nor inactive); the mix of calls is not that of the screen. Potencies of inconclusive entries are left out as doubtful fits. Calls of active or inactive are those of the source. Calls come from the whole dose curve; as a rule, active = well fitted inhibition curve with a large enough effect; inconclusive = small, poorly fitted or top-dose-only effect; inactive = flat fitted curve, though single readings scatter.

biological target: Tyrosyl-DNA phosphodiesterase 1 (Homo sapiens) (UniProt Q9NUW8); assay: Confirmation Assay for Inhibitors of Tyrosyl-DNA Phosphodiesterase (TDP1) (AID 489007); conditions: recombinant human TDP1 enzymatic activity, dose-response; note: nearly all actives have a fitted effect of over 40% in size
Outline: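 Recombinant human Tdp1 (1 nM final), expressed in E. coli, preincubated 15 min with compound. Then 15 nM 5'-biotin/3'-phosphotyrosine-FITC DNA substrate added for 5 min at room temperature. AlphaScreen beads (10 ug/ml) added for 10 min; cleavage gives signal loss.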
Potency is the fitted concentration of half-maximal effect; tags give direction and shape of the fitted curve.

UniProt Q9NUW8, sequence (Q9NUW8 whole entry, looked up): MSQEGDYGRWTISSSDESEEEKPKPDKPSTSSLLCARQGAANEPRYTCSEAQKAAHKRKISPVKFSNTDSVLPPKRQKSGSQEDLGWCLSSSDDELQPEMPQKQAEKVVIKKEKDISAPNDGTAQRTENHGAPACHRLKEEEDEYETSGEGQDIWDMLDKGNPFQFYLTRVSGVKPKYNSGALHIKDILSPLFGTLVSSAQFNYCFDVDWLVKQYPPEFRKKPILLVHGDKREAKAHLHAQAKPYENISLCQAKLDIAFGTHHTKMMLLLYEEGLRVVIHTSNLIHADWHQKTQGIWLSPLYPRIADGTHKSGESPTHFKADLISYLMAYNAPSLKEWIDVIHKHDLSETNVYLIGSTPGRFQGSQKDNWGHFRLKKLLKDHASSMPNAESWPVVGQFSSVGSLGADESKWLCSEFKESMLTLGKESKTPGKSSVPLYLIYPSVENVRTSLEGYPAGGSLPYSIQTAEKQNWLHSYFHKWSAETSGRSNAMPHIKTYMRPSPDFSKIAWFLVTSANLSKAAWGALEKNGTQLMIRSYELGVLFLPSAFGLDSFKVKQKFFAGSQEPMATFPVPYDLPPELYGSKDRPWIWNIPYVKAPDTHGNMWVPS

SMILES | Potency
N#CC1=C(SCC(=O)Nc2ccc(C(=O)O)cc2)NC(=O)CC1c1ccco1 (stereo not given) | inconclusive [inhibitor, single point]
CC(=O)Nc1ccc2c(COC(=O)CC3Sc4ccccc4NC3=O)cc(=O)oc2c1 (stereo not given) | active: 15.8 µM
CCCCCCCCCCCCCCOc1ccc(C(=O)O)o1 | inconclusive [inhibitor, full curve]
COc1ccc2nc(NC(=O)c3ccc4ncsc4c3)sc2c1 | inconclusive [inhibitor, full curve, poor fit]
COc1ccc(NC(=O)Cn2cc(C(=O)c3ccncc3)c(=O)c3cc(C)ccc32)cc1Cl | inconclusive [inhibitor, partial curve]
CC(=O)Oc1cc(-c2coc3cc(OC(C)=O)c(OC(C)=O)c(OC(C)=O)c3c2=O)cc(OC(C)=O)c1OC(C)=O | inconclusive [inhibitor, full curve]
Cc1ccc2[nH]c(=O)c3cc(C(=O)N4CCN(C(=O)c5ccco5)CC4)sc3c2c1 | inconclusive [inhibitor, single point]
CCOc1ccc(CNS(=O)(=O)c2ccc(-c3coc(C)n3)cc2)cc1 | inconclusive [inhibitor, partial curve]
COC(=O)c1ccc(NC(=O)c2cn(-c3ccccc3)nc2-c2ccncc2)cc1 | inconclusive [inhibitor, partial curve]
CC(=O)Nc1ccc2nc3c(=O)[nH]c(=O)[nH]c3nc2c1 | active: 4.47 µM
O=C(Nc1cccc(Oc2ccc(C(=O)O)c(C(=O)O)c2)c1)c1ccc(-c2ccccc2)cc1 | inconclusive [inhibitor, full curve]
O=C(Nc1nc2c(F)cc(F)cc2s1)c1ccc2c(c1)OCCO2 | inconclusive [inhibitor, full curve]
c1ccc(C2CC(c3cccs3)=NN2c2ccccc2)cc1 (stereo not given) | inconclusive [inhibitor, full curve]
O=C(O)c1ccc(N/N=C/c2ccc(-c3cc(Cl)ccc3Cl)o2)cc1 | inconclusive [inhibitor, partial curve]
Nc1c(C(=O)Nc2ccc(Br)cc2)sc2nc(-c3ccncc3)ccc12 | inconclusive [inhibitor, partial curve]
CC1CCN(S(=O)(=O)c2ccc3c(c2)CCC(=O)N3CC(=O)Nc2cccc(C#N)c2)CC1 | inconclusive [inhibitor, full curve]
COc1ccc2[nH]c(C(=O)O)c(CCN3C(=O)c4cccc([N+](=O)[O-])c4C3=O)c2c1 | inconclusive [inhibitor, single point]
O=C(C1Cc2ccccc2CN1C(=O)c1ccccc1)N1CCN(c2ccccc2)CC1 (stereo not given) | inconclusive [inhibitor, partial curve]
Cn1c(-n2cccc2)c(-c2c(-c3ccccc3)[nH]c3c2c(=O)[nH]c(=O)n3C)c(=O)[nH]c1=O | active: 100 µM
O=C(Nc1ccc(-n2nncc2-c2ccco2)cc1)c1cc2ccccc2oc1=O | inconclusive [inhibitor, full curve]

SMILES | Potency
O=C(O)CCCNC(=O)/C=C/c1ccco1 | inconclusive [inhibitor, partial curve]
O=C(c1cc2ncc(Br)cn2n1)N1CCN(C(=O)c2ccco2)CC1 | inconclusive [inhibitor, partial curve]
Cc1cc2c(o1)CC(C)(C)CC2=O | inconclusive [inhibitor, single point]
Cc1ccc(Nc2nc(N)nc(CSc3nnnn3-c3ccccc3)n2)cc1 | inconclusive [inhibitor, full curve]
O=C(O)c1ccc(Cl)c(S(=O)(=O)N2CCCC2)c1 | inconclusive [inhibitor, partial curve]
O=C(Nc1cccnc1)c1cc2c(ccc3ccccc32)o1 | inconclusive [inhibitor, partial curve]
Fc1cc(F)c2nc(Nc3nc4cc5c(cc4s3)OCO5)sc2c1 | inconclusive [inhibitor, full curve]
CCOC(=O)c1c(NC(=O)C2C3C=CC(C3)C2(C)C(=O)O)sc2c1CCCC2 (stereo not given) | inconclusive [inhibitor, full curve]
NS(=O)(=O)c1ccc(N2C(=O)C3CC=CCC3C2=O)cc1 (stereo not given) | inconclusive [inhibitor, partial curve, poor fit]
CC(C)[C@H](NC(=O)Cc1ccccc1)C(=O)OCc1cc(=O)n2c(n1)sc1ccccc12 | inconclusive [inhibitor, single point]
Cc1cc(C)n2nc(C(=O)OCC(=O)c3cc(C)n(C)c3C)nc2n1 | inconclusive [inhibitor, partial curve]
O=C(O)c1ccc2c(c1)C(=O)/C(=C/c1ccccc1)C2=O | inconclusive [inhibitor, partial curve]
O=C(O)c1cccc(-c2ccc(/C=N/n3cnc4sc5c(c4c3=O)CCCC5)o2)c1 | inconclusive [inhibitor, partial curve]
Cc1ccc(S(=O)(=O)N2CC=C(C(=O)NCc3ccc(F)cc3)CC2)cc1 | active: 28.2 µM
Cc1cc(C)nc(NC(=O)CSc2nn(-c3ccccc3)c(=S)s2)n1 | inconclusive [inhibitor, single point]
O=C(CSc1nc(-c2cccs2)nc2cc(=O)[nH]n12)Nc1ccccc1F | inconclusive [inhibitor, partial curve]
Cc1ccc(-c2c3c([nH]c(=S)c2C#N)CCCC3)o1 | inconclusive [inhibitor, single point]
Cc1ccc(/C=C2/C(=O)c3ccc(C(=O)O)cc3C2=O)o1 | active: 14.1 µM
C=CCCN(Cc1ccccc1)S(=O)(=O)c1ccccc1Br | active: 56.2 µM
O=C1C2CC=CCC2C(=O)N1Nc1ccccc1 (stereo not given) | inconclusive [inhibitor, partial curve]
